Assay results from the supplement of paper PMC11417369.
This is one part of the list.

These sequences were tested on PF3D7_0420300 AP2 domain 1 (GST-tagged) (assay: gcPBM binding intensity (ln(normalized median fluorescence intensity)); higher = stronger DNA binding).
In short: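 Using an Agilent 4 × 180k array, primer-extended double-stranded 36-bp intergenic genomic probes and negative controls were exposed for 1 h to GST-fused P. falciparum DNA-binding domains expressed in E. coli. Binding was carried out in 1× PBS with 1% milk, 0.2 mg/ml BSA, 0.5% salmon testes DNA and 0.03% Triton X-100, and protein was detected with Alexa488 anti-GST antibody and a 488 nm scan. Binding intensity is the highest Masliner-normalised natural-log median intensity across replicate spots of either probe orientation.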

| Sequence | gcPBM binding intensity (ln) |
| --- | --- |
| TTTTGGAATTTTAGCTGTACTTTTCCTATTTTGTAT [XGTACX_site7679] | 9.54 |
| TTCTTTTCTTCTACATGTACAAATATTATATATATA [XGTACX_site2996] | 9.44 |
| TATTAATTTATATCAACACACAAAATCAATATACTT [CACACA_site1757] | 9.54 |
| AACATAAATATATATAGTACATATATATATATTCAA [XGTACX_site7287] | 9.08 |
| TTCTATATTTTAGCTGATAATATTATGAGCTTCACT [XGTACX_negctrl_site427] | 9.08 |
| CGAAATATTATGTACGCACACACATTTTTAATATAT [CACACA_site3852] | 9.72 |
| ATATAGATCAGACACACACACATGTTTTAAAACTAT [CACACA_site6186] | 9.98 |
| AAGGAATAATATAAAACACACACATAAATATAAATA [CACACA_site9115] | 10.1 |
| AATATATGGTATAATTGTACAAAAAAAAAAAAAAAA [XGTACX_site1476] | 8.88 |
| CTTTAACCTTTTTATTGTACTTTTAATATTTTAAAA [XGTACX_site4457] | 9.15 |
| TCTTTAATGAACAAATGTACAAGAACAATACCCGCA [XGTACX_site2047] | 9.58 |
| GTGAAATGGAAAAAAAGTACAGATTACATAAGTATT [XGTACX_site6355] | 9.38 |
| TGCTTATATATACGTGCACACATATATATAAGATAT [CACACA_site8516] | 9.34 |
| TATTTTAATTATAAATTTAAAAAAAAAAAGAAAAAA [CACACA_negctrl_site1674] | 9.01 |
| CTGGAGGATGAAAAAAGTACAAAAGGAGGAAATGTA [XGTACX_site8846] | 9.44 |
| AAAACAAATATATTAACACACAAACATATAAACAAA [CACACA_site6052] | 10 |
| AGCTCATGCAGGTGTACACAAAAAGAAAAAAAATAA [CACACA_site4828] | 9.2 |
| CCCCATATAATGAACACACACACTCCTCATAATTAA [CACACA_site628] | 10.2 |
| ATGTCCTCAATGTTTACACACTCTTTTATATAAGTT [CACACA_site1460] | 9.71 |
| ATAAATAATGTTGACACACACAATAATCTTATTATG [CACACA_site3593] | 9.57 |
| AACGTTCAATTTAAATGTACAAATGTATTTAAATAT [XGTACX_site315] | 9.16 |
| AGTTTAGAATTTAATACACACAAAAAAAAAAAATTA [CACACA_site7698] | 9.55 |
| AAATACAAAATTGTTACACACATATTAAGTATGACA [CACACA_site4421] | 9.49 |

| Sequence | gcPBM binding intensity (ln) |
| --- | --- |
| TTTCTTTTTTCATTTACACACAATAATATAAGAATA [CACACA_site3164] | 9.32 |
| TACACAAATATATATATATATATATATATATATATA [XGTACX_negctrl_site305] | 9.49 |
| TTGTGTTTTACATATACATGCAAATTTTTTTTTTTA [TGCATGCA_site303] | 8.99 |
| TAAATCATTTCATGGCATTTACACAAAATTTTTTAA [CACACA_negctrl_site1260] | 8.88 |
| TATAGCATAAATATGTGTACATATTTATATGATATT [XGTACX_site6333] | 9.17 |
| TATTTATTTATATAAACACACATAAATATAAATATA [CACACA_site6653] | 9.22 |
| TATATATAATATTATACACACATATATGCATAATAT [CACACA_site54] | 9.46 |
| ATATATATTTAAAAAAGTACAGAAGAAAATAACCCA [XGTACX_site642] | 9.65 |
| TATTACACATATTATACACACATATATTATATATAT [CACACA_site4951] | 9.62 |
| TAACATATTTTTAATACACACTTAAAAAAGTACTTA [CACACA_site4875] | 9.09 |
| TTAAATTGAATTAGTTAACACACAACTTTTATTTCA [CACACA_site8921] | 9.14 |
| TCTTCATACGACTAAAAAACATTAGACTGATAAAAA [CACACA_negctrl_site628] | 8.98 |
| ATACTATATATATAAGTGCATGTTCATTATACCTAA | 9.29 |
| ATATATATTATGTGTGTGCACTTTTGTTATTATTAT | 9.92 |
| ATAACTAAATGATATTGTACAAAATAATTATATATT [XGTACX_site1331] | 9.31 |
| CATTATATGATTTATGTGCACATTCATTTATTTTAA | 9.29 |
| TATTAATAAAACCGTTGTACTACATACATAAATATT [XGTACX_site5578] | 9.12 |
| AAAAATCAATTAGAAGAACACACGTAAATTTTTTTT [CACACA_site2396] | 9.42 |
| TATTTATGTTCATATAAACACACGTAAAATTCAAGG [CACACA_site1538] | 9.26 |
| GTCCCTATAAGGGGAACACACATAAATGGATATATA [CACACA_site6612] | 9.21 |
| TCAATAAAAAAAAACGCACACACAAATATATTCCAT [CACACA_site1223] | 9.98 |
| CATATTCATAAAAGTTGTACATGCAATTTTTTTTTT [XGTACX_site2261] | 9.05 |
| TAAATGGGTGTTAATGCACACGATATGTCTATATAT [CACACA_site5321] | 9.32 |

| Sequence | gcPBM binding intensity (ln) |
| --- | --- |
| TATTTATTTTTCTGTTGTACTTTTCAACATGTTACA [XGTACX_site7457] | 9.29 |
| TCTACATATTAATTATGTACGAATTATTATTAGTAA [XGTACX_site6924] | 8.95 |
| ATAAATACTAGGCACACACACATATATATATATATA [CACACA_site2080] | 9.81 |
| ATATATATATATATATGTACATATATGTATACCTTA [XGTACX_site6791] | 9.1 |
| CAATAGTTCTTATGGGTGCAAACCACATATATATAA [GTGCAC_site9606] | 9.06 |
| TTTATTTATCTGTATACACACTTTAATGAAAAGTTG [CACACA_site5400] | 9.2 |
| ACAAATCTAAGATAGTGTACATTTATATATATATAT [XGTACX_site8740] | 9.26 |
| ATATATATATAATAAACACACACATATACATATATG [CACACA_site9145] | 9.92 |
| TATATATATATATAAGTGCATATAAAAATCGTTCGT | 9.42 |
| TTTATATACACACAGAAGAACAGAAATATTATATAT [TGCATGCA_negctrl_site483] | 9.55 |
| AATATAAATAAAAACACACACACACCCATATATATA [CACACA_site2267] | 10.1 |
| AAGGATATAACATACACACACACACCGATATATATA [CACACA_site6136] | 10.2 |
| TATTTTTTTTTTATATGTACATAATTTCAAATAAAT [XGTACX_site7747] | 9.01 |
| ATATATCATATTATAGTGCATTTATAATAATATTAT | 9.3 |
| TATTATCTGTAGTGTACACATATTATATAGTACTTT [CACACA_site4582] | 9.44 |
| AAAATTATATATTATTGTACATAAAATTTTGACATA [XGTACX_site4886] | 8.97 |
| ATAACGATATATGTGCGTACTTATAGAATAAGCAAA [XGTACX_site6743] | 9.34 |
| AAAAATATATATAACACACACATAATATATATATAT [CACACA_site2537] | 9.88 |
| TTATAACACATTACATGTACAAATATAAATATATTC [XGTACX_site6503] | 9.14 |
| AAAAAAAAAAAAAAATGTACAAAAATTACTATAAAA [XGTACX_site7683] | 9.05 |
| TTTTTTTTTGTTTACACACACAAAATATTATATGTA [CACACA_site2470] | 9.66 |
| AGGAAAAACTTGAATGCATGCGCACATTCTAGTTTG [TGCATGCA_site776] | 9.08 |
| TATTATTACGTAATATGTACATATATTTATACCACT [XGTACX_site5918] | 9.35 |

| Sequence | gcPBM binding intensity (ln) |
| --- | --- |
| AATATCTAAATAAAGTGTACTTACCTTATTAATTAT [XGTACX_site2276] | 9.17 |
| CCAATACATAGAAACTGTACATTATGCATTATACAC [XGTACX_site3531] | 9.33 |
| AATTTAATCCGTAATAAGAAAAGAAAAAAAAAAAGA [GTGCAC_negctrl_site129] | 9.39 |
| ATTAGCTACAAACAAAGGCTACCTATAGCAAGAGGG [GTGCAC_negctrl_site33] | 9.48 |
| ATAATTTCTTTTACATGTACAAAATTTGCTTATATG [XGTACX_site5388] | 9.34 |
| TATATATATACATACATACACACATATATATATATA [CACACA_site4109] | 9.59 |
| ATATATATAATGTGAAGTACATTTTGTTTACATATT [XGTACX_site8405] | 9.23 |
| GGATTATTTATAGGAGTGCATACATATATATATATA [GTGCAC_site9454] | 9.14 |
| TTTATTAAATAATCTCTTTTTATTACATAATAATAA [XGTACX_negctrl_site382] | 8.84 |
| TTTACACTTTCCAATAGTACATATTAGAATAATTCT [XGTACX_site7734] | 9.11 |
| TAATTTATGGAATATGTGCACTTGCTGATCACTTTT [GTGCAC_site9843] | 9.22 |
| TATAGGTAAATGGACACACACATATTTATATTTATA [CACACA_site7683] | 9.82 |
| TGTAGTCTGGAGAAGAGTACATAGTATCTGGTAACA [XGTACX_site4944] | 9.06 |
| TTATTAGGTGTATAATGTACATATAATATATATATA [XGTACX_site3398] | 9.06 |
| TAATGTTTTTATATCACACACAAATATTAAATGATT [CACACA_site543] | 9.42 |
| ATAGAAGCATCACACTGTACATGGATGAACAGAAAA [XGTACX_site7311] | 9.44 |
| TATAATATAAGGATCACACACAAACAGACATATATA [CACACA_site557] | 10 |
| GATATTAAAATATGTAGTACACATATTATATCATAT [XGTACX_site4167] | 9.18 |
| TTAAAAATTATGGATACACACATATATATATATATT [CACACA_site2383] | 9.47 |
| ATAGTTCCTTTTAATACACACAAAAAAAAAAACATG [CACACA_site3415] | 9.5 |
| AATAAACATAAATACACACACAAAAAAAAAAACATA [CACACA_site4396] | 10.3 |
